Measured values published in PubChem BioAssay AID504444 (National Center for Advancing Translational Sciences (NCATS), 2011).
In all, about 360,000 compounds went through this assay and about 7,500 (2.1%) were called active. Roughly 20% stayed inconclusive and do not appear here. The call rests on the fitted dose curve; in most records, active means well fitted inhibition curve with a large enough effect; inconclusive means small, poorly fitted or top-dose-only effect, or effect the other way; inactive means flat fitted curve, though single readings scatter. The list shows a part of the results, in another mix than the full data.

Assay: Nrf2 qHTS screen for inhibitors; further: nearly all actives have a fitted effect of over 60% in size
Conditions: A549 ARE-Fluc reporter, luciferase luminescence, 18-24 h; series mostly up to 46 µM; activity change, negative = inhibition: at the top concentration
In short: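 In this cell-based qHTS, ARE-driven firefly luciferase in A549 cells reports Nrf2 activity; the luminescent signal after BugLite lysis is the measured value, with a prior CellTiter-Fluor read for cell health.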
On the % scale 0 is the no-effect control and ±100 the full control effect; potency means the concentration at half of the fitted maximal effect.

Row | Structure (SMILES) | activity change, negative = inhibition | Potency
1 | COc1ccc(N2CCN(C(=O)c3ccc4c(Cl)c5c(nc4c3)CCCC5)CC2)cc1 | inactive: -25.1% | –
2 | Cc1ccc(-c2csc(NC(=O)c3ccc4c(=O)n5c(nc4c3)CCCCC5)n2)cc1 | – | active: 5.17 µM
3 | COC(=O)C1=C(C(=O)OC)[C@]2([C@@H]3CCCCN[C@@H](Cc4ccccc4)C(=O)N3Cc3ccccc3)C=C[C@H]1O2 | inactive: -22.6% | –
4 | C=C1C(=O)O[C@@]23[C@H]1CC[C@@H](C)[C@@H]2CC[C@@]1(C)O[C@@H]31 | – | active: 14.6 µM
5 | CC(C)c1ccc(NC(=O)CN2C(=O)COc3ccc(S(=O)(=O)N4CCOCC4)cc32)cc1 | inactive: 0.309% | –
6 | COc1ccc(NC(=O)C2CCCN(S(=O)(=O)c3c(C)[nH]c(=O)[nH]c3=O)C2)cc1Cl (stereo unspecified) | inactive: 2.25% | –
7 | COc1ccc(C(=O)Nc2nnc(S(=O)(=O)N3CCC(C)CC3)s2)cc1OC | inactive: -9.91% | –
8 | O=C(Nc1nnc(S(=O)(=O)N2CCCC2)s1)c1ccccc1F | inactive: 3.71% | –
9 | COc1ccc(-c2cc(C(=O)N3CCN(c4ccc(F)cc4)CC3)no2)cc1OC | inactive: -26.4% | –
10 | COc1cccc(CNC(=O)CCCn2nc(C)n3c(cc4sccc43)c2=O)c1 | inactive: -14.6% | –
11 | Cc1ccc(CNC(=O)c2cn(C)c3ccc(S(=O)(=O)N4CCOCC4)cc3c2=O)cc1 | inactive: 16.6% | –
12 | COc1cc2c(cc1OC)CN(C(=O)CCCOc1ccc(Cl)cc1Cl)CC2 | – | active: 18.4 µM
13 | O=C(CCCN1C(=O)/C(=C\c2cccs2)SC1=S)Nc1ccc(O)cc1 | inactive: -12.6% | –
14 | C[C@]12C=CC(=O)C=C1CC[C@@H]1C2C(O)C[C@@]2(C)C1CC[C@]2(O)C(=O)COC(=O)CCC(=O)NC(CC(=O)O)C(=O)O (stereo partly specified) | – | active: 0.103 µM
15 | CCOc1ccc(CNC(=O)C2CCN(c3nn4c(=O)cc(C)nc4s3)CC2)cc1 | inactive: 2.12% | –
16 | COc1ccc(CNC(=O)C2CCCN(S(=O)(=O)c3cccc4nsnc34)C2)cc1 (stereo unspecified) | inactive: -24.5% | –
17 | CCOc1ccc(-c2nonc2NC(=O)c2ccco2)cc1 | inactive: 0.982% | –
18 | CC(=O)c1ccc(N2CCN(C(=O)CCCc3nc4ccccc4s3)CC2)cc1 | – | active: 14.6 µM
19 | C=C1CCN(C(C)C(=O)O)S(=O)(=O)c2ccccc21 (stereo unspecified) | inactive: 0.882% | –

Row | Structure (SMILES) | activity change, negative = inhibition | Potency
20 | COc1ccc(C2CC(c3cccs3)=NN2C(=O)CSC2=NCCS2)cc1 (stereo unspecified) | – | active: 18.4 µM
21 | CCCCN(C(=O)CCn1c(=O)oc2ccccc21)c1ccccc1 | inactive: -18% | –
22 | CCCSc1ccc([C@@H]2[C@@H]3C(=O)N(CC)C(=O)[C@@H]3[C@]3(C(=O)OC)CCCCN23)cc1 | inactive: -24.4% | –
23 | CC(C)[C@H](NC(=O)c1ccccc1F)C(=O)Nc1ccc2c(c1)OCO2 | inactive: -14.8% | –
24 | C[C@H]1CCC[C@]2(O[C@H](CCO)C[C@@H](O)[C@@H]2O)O1 | inactive: -12.8% | –
25 | COc1ccc(CN2CCN(S(=O)(=O)c3ccccc3)CC2)c(OC)c1 | inactive: 15.2% | –
26 | Cc1ccc(-c2c(C)n3c4c(=O)n(C)c(=O)n(C)c4nc3n2CCCO)cc1 | – | active: 18.4 µM
27 | Oc1ccc(C[C@@H]2CNCCN2CC2(c3ccccc3)CC2)cc1 | inactive: 1.39% | –
28 | O=C1C2C(c3ccccc3)CC=CC2[C@H](c2ccc3ccccc3c2)N1Cc1ccccc1 (stereo partly specified) | inactive: -10.2% | –
29 | Clc1ccccc1CN1CCN(/N=C/C=C/c2ccco2)CC1 | inactive: 13.1% | –
30 | O=C(COc1ccccc1)Nc1c(Cl)ccc2nsnc12 | inactive: -4.77% | –
31 | Cc1ccc(/C=C2\C(=O)ON=C2c2ccccc2)o1 | inactive: -4.34% | –
32 | CC(=O)n1cc([C@H]2C=C(C(=O)N3CCN(Cc4ccccc4)CC3)O[C@@H](OCc3ccc(CO)cc3)C2)c2ccccc21 | inactive: -23.3% | –
33 | CC(=O)Nc1ccc(SCC(CC(C)C)N2CCN(CCc3ccccc3)CCC2=O)cc1 (stereo unspecified) | inactive: -10.7% | –
34 | COc1cccc(-c2cc(C(=O)N3CCN(c4ccccc4OC)CC3)no2)c1 | inactive: 14.3% | –
35 | CCC(CC)C(=O)Nc1c(C(=O)N2CCN(c3ccccc3)CC2)oc2ccccc12 | inactive: 1.55% | –
36 | CCOC(=O)/C(=N\Nc1ccc(Br)cc1)N1CC(C)OC(C)C1 (stereo unspecified) | inactive: -11.7% | –
37 | C[C@H]1CCC[C@@]2(O[C@@H](CCO)C[C@H](O)[C@H]2O)O1 | inactive: 7.89% | –
38 | O=C(Cn1cccc1C(=O)c1ccccc1)NCc1ccc(F)cc1 | inactive: 12.2% | –

Row | Structure (SMILES) | activity change, negative = inhibition | Potency
39 | Cc1occc1C(=O)N(C)Cc1nc(-c2ccc(Cl)cc2)no1 | – | active: 20.6 µM
40 | Cc1ccc(NC(=O)c2ccc(CNS(=O)(=O)c3ccc4c(c3)C(C)(C)C(=O)N4C)cc2)cc1C | – | active: 18.4 µM
41 | O=C(Nc1c(-c2ccccc2)nc2ccccn12)c1ccccc1F | inactive: 2.83% | –
42 | CCOC(=O)C1=C(C)NC(C)=C(C(=O)OCC)C1C(=O)OCC(=O)N1CCCCC1CC (stereo unspecified) | inactive: -1.98% | –
43 | CCOc1ccc(CCNC(=O)CCCn2c(=O)c3cccn3c3cccnc32)cc1OCC | inactive: -0.986% | –
44 | C#C[C@]1(O)CC[C@H]2[C@@H]3CCC4=CC(=O)CC[C@@H]4[C@H]3CC[C@@]21CC | inactive: -10.9% | –
45 | N#C/C(=C(/O)c1ccco1)c1nc2ccccc2s1 | inactive: 1.4% | –
46 | CCCCNC(=O)C(Cc1ccccc1)NS(=O)(=O)c1ccc2c(c1)c(=O)n(C)c(=O)n2C (stereo unspecified) | inactive: 6.94% | –
47 | CNC(=O)C1CCC(Cn2c(=O)c3sccc3n(CC(=O)Nc3ccc(C)c(C)c3)c2=O)CC1 (stereo unspecified) | – | active: 23.1 µM
48 | C[C@@H]1CC=C[C@H]2[C@H]1C(=O)N(Cc1ccccc1)[C@H]2c1ccc(-c2ccc(F)cc2)cc1F | inactive: -13.1% | –
49 | Cc1ncc(CO)c(/C=N/Nc2ccc(C(F)(F)F)cn2)c1O | – | active: 10.3 µM
50 | NNC(=O)c1oc2nc(-c3ccc(Cl)cc3)cc(-c3ccccc3)c2c1N | – | active: 10.3 µM
51 | CCCN(CCC)CCCNC(=O)c1cc2c(-c3ccc(OC)c(OC)c3)nn(C)c2s1 | inactive: 16.1% | –
52 | CC(C)Nc1nc(C#N)nc(NC(C)C)n1 | inactive: -23.8% | –
53 | CC(N=C(NC#N)Nc1ccncc1)C(C)(C)C (stereo unspecified) | inactive: -3.31% | –
54 | COc1ccc(NC(=O)CCCN2C(=O)C(c3ccccc3)Oc3cccnc32)c(OC)c1 (stereo unspecified) | inactive: -15.2% | –
55 | O=C(Cc1cccs1)N/N=C/C=C/c1ccccc1[N+](=O)[O-] | inactive: 2.41% | –
56 | CN1C(=O)Cc2cc(S(=O)(=O)NCCc3ccc(Cl)cc3)ccc21 | inactive: 1.76% | –
